{"source": "paper PMC8592882", "about": "“Naturally occurring cancer-associated mutations disrupt oligomerization and activity of protein arginine methyltransferase 1 (PRMT1)” (The Journal of Biological Chemistry, 2021)", "proteins": {"B1": {"name": "wild-type R. norvegicus PRMT1 (rPRMT1) (enzyme)", "chain": "not shown", "notes": "R. norvegicus protein arginine methyltransferase 1, splice variant PRMT1V1 (rPRMT1); pET28b vector coding for a His(6) tag with thrombin and TEV cleavage sites; Printed monomer mass 43.5 kDa; an anti-His antibody detects the protein on native PAGE blots; also called WT PRMT1; WT rPRMT1; source: E. coli BL21 DE3, purified (HisTrap)"}}, "target": "the molecule itself", "experiment": "AUC; sedimentation velocity, 3 uM protein, 50 mM sodium phosphate, 2 mM EDTA, pH 7.6, 2 mM DTT added to appropriate tubes, 20 C, 40,000 rpm, absorbance at 280 nm, c(s) analysis in Sedfit", "data": [{"protein": "B1", "values": [{"measurement": "stoichiometry N", "result": 4}]}]}
